Patent US20150175687A1, “MYOSTATIN BINDING AGENTS” (published 2015)
Positions count from the first letter of the chain named. Like-named read-outs stand apart in the source and are kept apart here. Each block holds one binder with its values, some of them ahead of it.

How the values were obtained:
[1] = molecular target: T1, recombinant mature myostatin (human, UniProt O14793); experiment: cell-based or functional assay
[2] = molecular target: T1, recombinant mature myostatin; experiment: cell-based or functional assay; remark: listed apart in the source
[3] = molecular target: T1, recombinant mature myostatin; experiment: BIAcore, myostatin immobilized
[4] = molecular target: T1, recombinant mature myostatin; experiment: KinExA solution based assay or BIAcore (not told which)

B3: Myostatin-Linear-20 peptibody (Fc fusion)
chain: MYREMSMLEGLLDVLERLQHYGGGGG[letters of human IgG1 Fc left out]
IC50 (nM), myostatin-induced luciferase, C2C12 pMARE-luc [2]: ~11 nM

B4: Myostatin-TN12-34 peptibody (Fc fusion)
chain: MAHWCEQGPWRYGNICMAYGGGGG[letters of human IgG1 Fc left out]GGGGGAHWCEQGPWRYGNICMAY
IC50 (nM), myostatin-induced luciferase, C2C12 pMARE-luc [2]: ~30 nM

B5: Myostatin-2xTN8-19 kc peptibody (Fc fusion)
chain: [letters of human IgG1 Fc left out]GSGSATGGSGSTASSGSGSATGQGHCTRWPWMCPPYGSGSATGGSGSTASSGSGSATGQGHCTRWPWMCPPY
Kd [3]: ~2 nM
Kd [4]: > 1 nM

Next, values leading:

IC50 (nM), myostatin-induced luciferase, C2C12 pMARE-luc [1]: 90.2 nM
B1: mL2-7 peptibody (Fc fusion)
chain: MGAQRMEMLESLFELLKEIVPMSKAGLEGGGGG[letters of human IgG1 Fc left out]

IC50 (nM), myostatin-induced luciferase, C2C12 pMARE-luc [1]: 106 nM
B2: mL2-9 peptibody (Fc fusion)
chain: B1 chain with R5Q, M8L, E10D, M22K, K24Q, A25P, G26A
